# In all, about 13,000 compounds were measured (“IFI”: median about 4, highest 2% from about 17 on). The list shows a part of the results.
# Experiment: GSK_TCMDC: Inhibition Frequency Index (IFI). The number of non-kinase HTS assays where a compound showed > 50 % inhibition, expressed as a percentage of the number of such assays in which the compound was tested (-0 is zero)
# Assay type: functional
row,Structure (SMILES),IFI
1,O=C(Nc1ccc(Cn2ncc(N3CCCNCC3)c(Cl)c2=O)cc1)Nc1cccc(SC(F)(F)F)c1,5.88%
2,Clc1ccc(-c2cc(-c3csc(Nc4ccncc4)n3)on2)cc1,2.11%
3,CCN(CC)CCN(CCCc1ccc(-c2ccc(C(F)(F)F)cc2)cc1)C(=O)Cn1c(CCc2cccc(F)c2F)nc(=O)c2c1CCC2,11.5%
4,COc1ccc(C(=O)NC(c2ccc(Cl)cc2Cl)c2cc(Cl)c3cccnc3c2O)cc1 (stereo not given),5.41%
5,COc1ccc(-c2nc3cccnc3n2CC(=O)Nc2c(C)cc(C)cc2C)c(OC)c1,5.56%
6,Clc1ccc(/N=C(/NCCCCCCCN/C(=N\c2ccc(Cl)cc2)Nc2ccc(Cl)cc2)Nc2ccc(Cl)cc2)cc1,17.1%
7,COc1cc(NCCCCCNc2cc(Cl)nc3ccccc23)nc2ccccc12,15.8%
8,O=C(/C=C/c1ccc(Cl)c(Cl)c1)NCCCCCN1CCCN(C(=S)Nc2ccc(Cl)c(Cl)c2)CC1,5.65%
9,C=CC[C@@H](C(=O)OCC)[C@@H]1[C@@H](N(CC=C)C(=O)OC(C)(C)C)CCN1C(=O)OCc1ccccc1,0.73%
10,CCN(CC)CCNC(=O)c1ccc(NC(=O)c2oc3c(Cl)cccc3c2C)cc1,4.76%
11,CC1CCCN1Cc1ccc(-c2ccc3c(=O)cc(CCc4cccc(F)c4F)n(CC(=O)N(C)Cc4ccc(-c5ccc(C(F)(F)F)cc5)cc4)c3n2)cc1 (stereo not given),5.63%
12,CN(C)CC1CCCN1Cc1ccccc1-c1cnn(C)c(=O)c1Oc1ccc(F)cc1 (stereo not given),3.45%
13,O=C(Cc1ccc(-n2cnnn2)cc1)N(Cc1cncn1Cc1cccc(C(F)(F)F)c1)CC1CC1,-0%
14,FC(F)(F)c1cccc2c(NN=Cc3ccccc3)ccnc12,8.2%
15,C=CCc1ccccc1OCC(O)CN(C1CCCCC1)C1CCCCC1 (stereo not given),4.96%
16,COCCNCc1cccc(-c2ccc(CNC3CCN(Cc4ccccc4)CC3)cc2)c1,2.86%
17,Cc1cccc2nc(-c3ccc(-c4cccc(NC(=O)C(=O)c5cccn5C)c4)cc3)[nH]c12,1.8%
18,COc1ccc(Nc2nccc(-c3c(-c4cccc(NC(=O)c5c(F)cccc5F)c4)nn4ccccc34)n2)cc1Cl,2.8%
19,Cc1cc(Nc2ncc(Cl)c(Nc3ccccc3C(N)=O)n2)n[nH]1,0%
20,Cc1cc(=NN=Cc2cccc(F)c2)c2ccc(F)cc2[nH]1,0%
21,O=C(Nc1cccc(-c2cc(-c3c(Cl)cccc3Cl)no2)c1)c1cnc2ccccc2c1,-0%
22,Cc1cccc(NC(=O)Nc2ccc(I)c(OCCN(C)C)c2)c1C,2.88%
23,COc1ccc2nccc([C@@H](O)CN3CCC(NCc4cc5cccc(O)c5[nH]4)CC3)c2c1,4.96%
24,Cc1cc(Cl)ccc1OC(C)C(=O)N1CCc2ccccc21 (stereo not given),2.86%
25,CCCN(CCC)CCCCC(C)Nc1c2ccc(Cl)cc2nc2ccc(OC)cc12 (stereo not given),3.05%
26,COc1ccc2nc(C)cc(Nc3ccc(Oc4ccc(Cl)cc4)c(Cl)c3)c2c1,5.3%
27,Cc1cc(N(C)C)nc(Nc2ccc(NC(=O)C3CCCCC3)cc2)n1,3.85%
28,COc1cc2nc(N3CCC(CNC(=O)c4ccc(-c5ccc(C(=O)N(C)C)cc5O)cc4)CC3)nc(N)c2cc1OC,1.8%

row,Structure (SMILES),IFI
1,CC(C)c1ccc(CN2CCC(CNC(=O)c3cc(-c4cccc(F)c4)cs3)C2)cc1 (stereo not given),14.3%
2,Cc1ccc(O)c(-c2cc(C(=O)Nc3ccc(S(=O)(=O)N4CCCCCC4)cc3)[nH]n2)c1,1.54%
3,Cc1ccc(Cn2nc(Cl)c(N3CCCNCC3)cc2=O)cc1NC(=O)Nc1ccc(-c2ccccc2)cc1,5.52%
4,Nc1ncc(-c2ccsc2)c2ccc(-c3cnc[nH]3)cc12,2.92%
5,Cc1c(S(=O)(=O)Nc2ccc3ccn(CCN(C)C)c3c2)sc2ccc(Cl)cc12,4.35%
6,CCCc1cc(C(=O)N[C@@H](Cc2ccccc2)[C@H](O)CNC2CCOCC2)c(F)c(N2CCCCS2(=O)=O)c1,0.72%
7,C[C@H](NC(=O)[C@H](CCCCNC(=O)OC(C)(C)C)NC(=O)OC(C)(C)c1ccc(-c2ccccc2)cc1)C(=O)OCc1ccccc1,2.84%
8,CCc1cn2c3c(cc(C(=O)N[C@@H](Cc4ccccc4)[C@H](O)CNC4CCOCC4)cc13)N(C)S(=O)(=O)C2,3.62%
9,CC1=C(C(=O)Nc2ccccc2)C(c2ccc([N+](=O)[O-])cc2)n2ncc(C(=O)Nc3ccccc3)c2N1 (stereo not given),0%
10,NC(=S)Cc1ccc2c(c1)OCO2,4.26%
11,Cc1[nH]c(C)c(-c2ccc(OCc3cc(F)cc(F)c3)nc2)c(=O)c1Cl,7.02%
12,Cc1cc(C(=O)Nc2ccc(C)c(-c3nc(N(C(=O)c4ccc(F)c(C)c4)C4CCNCC4)nc4c3ccc(=O)n4-c3c(F)cccc3F)c2)ccc1F,1.01%
13,FC(F)(F)c1ccc(/C=C/c2cncnc2Nc2ccc3[nH]c(Cc4ccccc4)nc3c2)cc1,0.74%
14,CCCCCCN1CCCN(Cc2ccc(C(=O)Nc3ccc(F)c(F)c3)cc2)CC1,9.45%
15,O=C(NCCc1ccc(Cl)c(Cl)c1)c1ccc(CNC(=O)c2ccc(O)c(-c3ccc(Cl)c(Cl)c3)c2)cc1,1.48%
16,N#CCSc1nnc(-c2ccccc2)c2ccccc12,2.05%
17,FC(F)(F)c1ccc(CNC2CCN(CC3CCCCC3)CC2)cc1,2.03%
18,CC(Nc1ncc(-c2ccsc2)c(-c2nccs2)n1)c1ccc2c(c1)OCCO2 (stereo not given),4.49%
19,COc1ccc2nccc([C@@H](O)CN3CCC(NCc4cc5oc(=O)[nH]c5cc4F)CC3)c2c1,0.74%
20,COc1cc(-c2nc(-c3ccccc3)c(-c3ccccc3)[nH]2)cc(OC)c1O,5.84%
21,Cc1cc(C(=O)CSc2nc3ccccc3n2-c2ccccc2)c(C)n1C1CCS(=O)(=O)C1 (stereo not given),1.89%
22,Cc1cccc(CN2CCCN(Cc3ccc(C(=O)Nc4ccc(C(C)(C)C)cc4)cc3)CC2)c1,15.4%
23,CN1CCCC(CN2CCN(Cc3ccc(-c4cccc(-c5nc6cc(F)ccc6[nH]5)c4)cc3)CC2)C1 (stereo not given),12.5%
24,O=C(CCCCCNC(=O)c1ccc(O)c(-c2ccc(Cl)c(Cl)c2)c1)NCCc1ccc(Cl)c(Cl)c1,1.48%
25,Cc1[nH]c(C)c(-c2ccc(OCc3cc(C(F)(F)F)cc(C(F)(F)F)c3)nc2)c(=O)c1Cl,4.59%
26,CC(Cl)=CCc1c(C)nc2c(ccc3ccccc32)c1O,0.77%
27,CC1(C)N=C(N)N=C(N)C1c1ccc(Cl)cc1 (stereo not given),-0%
